Laboratory results taken from US20230340055A1 (published 2023).
Where two headings read alike, the source gives them in different places.

Assays:
[1] = target: T1, Human IL-2 Receptor beta, Fc-Tag (Symansis, New Zealand) (human, UniProt P14784 27-240); assay: SPR (Biacore T200), IL-2Rβ-Fc captured on anti-human IgG (Fc) CM5 chip, IL-2 as analyte, multi-cycle kinetics, 1:1 kinetic fit, 25 C
T1 construct: extracellular domain; Bought reagent; also called IL-2Rβ; IL-2Rβ-Fc; not shown: Fc-Tag (captured by anti-human IgG (Fc) antibody)
T1 sequence (looked up): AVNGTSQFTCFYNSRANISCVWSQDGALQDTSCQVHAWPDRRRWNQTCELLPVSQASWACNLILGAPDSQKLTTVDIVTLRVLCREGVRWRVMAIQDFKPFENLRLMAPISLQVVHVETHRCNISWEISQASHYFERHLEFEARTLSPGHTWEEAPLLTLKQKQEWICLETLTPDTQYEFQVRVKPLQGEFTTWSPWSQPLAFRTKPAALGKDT
Method: (§1) For the determination of binding kinetics to IL-2Rβ the following chip preparation was used: Human IL-2 Receptor beta, Fc-Tag (Symansis, New Zealand) was diluted in HBS-EP running buffer (GE Healthcare, 10 mM HEPES, 150 mM NaCl, 3 mM EDTA, 0.05% Surfactant P20, pH 7.4) to around 0.80 µg/mL and immobilized at a flow rate of 50 µL/min for 60 s to achieve 140 - 180 response units (RU).
(§2) (50 µL/min flow rate, 60 s contact time, 300 s dissociation time). Double referenced data (subtracted data from the reference flow cell and the buffer only samples) was analysed via a kinetic fit (1:1 binding model) to determine KD, kₐ and kd. Regeneration after each cycle was performed with 3 M MgCl₂.

[2] = target: T2, Human IL-2 Receptor alpha, Fc-Tag (Symansis, New Zealand) (human, UniProt P01589 22-240); assay: SPR (Biacore T200), IL-2Rα-Fc captured on anti-human IgG (Fc) CM5 chip, IL-2 as analyte, multi-cycle kinetics, 1:1 kinetic fit, 25 C
T2 construct: extracellular domain; Bought reagent; also called IL-2Rα; IL-2Rα-Fc; not shown: Fc-Tag (captured by anti-human IgG (Fc) antibody)
T2 sequence (looked up): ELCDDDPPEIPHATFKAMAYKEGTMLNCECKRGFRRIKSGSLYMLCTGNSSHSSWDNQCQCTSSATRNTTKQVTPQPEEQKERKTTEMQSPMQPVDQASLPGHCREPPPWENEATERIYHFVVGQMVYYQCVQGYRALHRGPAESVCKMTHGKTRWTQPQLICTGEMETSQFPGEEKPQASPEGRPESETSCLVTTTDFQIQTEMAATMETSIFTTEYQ
Method: as §1, with “IL-2Rα” for “IL-2Rβ”, “alpha,” for “beta,”, “approx. 0.67” for “around 0.80”, “80” for “140”, “100” for “180”
as §2

[3] = target: T2, Human IL-2 Receptor alpha, Fc-Tag …; assay: as above; remark: listed apart in the source
Method: as §1, with “IL-2Rα” for “IL-2Rβ”, “alpha,” for “beta,”, “approx. 0.25” for “around 0.80”, “90” for “140”, “110” for “180”
as §2

[4] = target: T1, Human IL-2 Receptor beta, Fc-Tag …; assay: SPR (Biacore T200), IL-2Rβ-Fc captured on anti-human IgG (Fc) CM5 chip, IL-2 as analyte, multi-cycle kinetics, 1:1 kinetic fit, 25 C; remark: listed apart in the source
Method: as §1, with “0.25” for “0.80”, “300” for “140”, “330” for “180”
as §2

[5] = target: T2, Human IL-2 Receptor alpha, Fc-Tag …; assay: SPR; KD to IL-2Rα divided by KD to IL-2Rβ of the same compound
Method: as §1, with “IL-2Rα” for “IL-2Rβ”, “alpha,” for “beta,”, “approx. 0.25” for “around 0.80”, “90” for “140”, “110” for “180”
as §1, with “0.25” for “0.80”, “300” for “140”, “330” for “180”
as §2

[6] = target: T3, IL-2Rβγ (dimeric intermediate affinity IL-2 receptor), human, on cells (human, UniProt P14784 27-551; P31785 23-369); assay: cell-based or functional assay
T3 sequence (looked up) 1: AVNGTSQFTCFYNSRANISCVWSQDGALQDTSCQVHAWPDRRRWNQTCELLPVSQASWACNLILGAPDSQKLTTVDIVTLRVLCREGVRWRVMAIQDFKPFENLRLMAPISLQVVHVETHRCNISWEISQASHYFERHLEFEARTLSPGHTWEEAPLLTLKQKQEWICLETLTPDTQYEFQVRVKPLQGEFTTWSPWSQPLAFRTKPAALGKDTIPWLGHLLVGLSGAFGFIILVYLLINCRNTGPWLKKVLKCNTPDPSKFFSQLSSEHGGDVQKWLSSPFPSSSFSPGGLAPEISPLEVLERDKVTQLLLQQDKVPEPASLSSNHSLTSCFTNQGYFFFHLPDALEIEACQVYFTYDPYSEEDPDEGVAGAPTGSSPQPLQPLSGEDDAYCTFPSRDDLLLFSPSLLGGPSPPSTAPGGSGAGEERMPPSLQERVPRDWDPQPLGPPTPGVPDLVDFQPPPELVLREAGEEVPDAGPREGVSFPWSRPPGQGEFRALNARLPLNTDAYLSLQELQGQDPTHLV
T3 sequence (looked up) 2: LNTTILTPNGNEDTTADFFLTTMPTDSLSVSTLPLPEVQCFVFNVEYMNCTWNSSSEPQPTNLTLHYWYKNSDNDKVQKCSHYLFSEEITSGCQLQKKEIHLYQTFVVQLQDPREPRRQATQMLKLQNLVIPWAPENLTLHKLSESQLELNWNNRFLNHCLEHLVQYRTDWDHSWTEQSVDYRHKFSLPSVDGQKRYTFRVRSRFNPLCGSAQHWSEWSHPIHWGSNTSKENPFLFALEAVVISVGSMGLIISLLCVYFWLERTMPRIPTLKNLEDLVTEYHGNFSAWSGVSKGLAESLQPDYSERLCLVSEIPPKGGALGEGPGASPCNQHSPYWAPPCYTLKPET

[7] = target: T4, IL-2-Rα/β/γ on the murine CTLL-2 T lymphocyte cell line (murine, UniProt P01590 22-268; P16297 27-539; P34902 23-369); assay: cell-based or functional assay
T4 sequence (looked up) 1: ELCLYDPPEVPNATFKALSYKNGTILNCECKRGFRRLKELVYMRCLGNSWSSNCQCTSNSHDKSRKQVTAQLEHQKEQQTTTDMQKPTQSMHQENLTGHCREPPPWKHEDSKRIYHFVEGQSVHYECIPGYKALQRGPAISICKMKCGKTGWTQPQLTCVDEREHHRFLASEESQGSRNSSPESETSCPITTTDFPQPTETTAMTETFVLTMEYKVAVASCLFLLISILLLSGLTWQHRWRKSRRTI
T4 sequence (looked up) 2: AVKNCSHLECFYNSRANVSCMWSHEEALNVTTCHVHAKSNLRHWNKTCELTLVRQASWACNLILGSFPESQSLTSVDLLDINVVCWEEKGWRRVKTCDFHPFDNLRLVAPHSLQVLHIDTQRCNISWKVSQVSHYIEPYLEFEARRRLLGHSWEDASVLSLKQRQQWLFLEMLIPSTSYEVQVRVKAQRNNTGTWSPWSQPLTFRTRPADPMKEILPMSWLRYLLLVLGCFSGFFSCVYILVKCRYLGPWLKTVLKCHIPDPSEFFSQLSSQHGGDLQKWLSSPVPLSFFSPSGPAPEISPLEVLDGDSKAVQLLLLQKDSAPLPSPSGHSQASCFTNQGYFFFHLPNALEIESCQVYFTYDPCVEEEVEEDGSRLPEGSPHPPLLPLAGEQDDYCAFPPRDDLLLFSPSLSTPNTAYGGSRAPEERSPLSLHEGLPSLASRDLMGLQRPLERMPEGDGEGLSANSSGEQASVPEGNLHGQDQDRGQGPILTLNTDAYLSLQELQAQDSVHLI
T4 sequence (looked up) 3: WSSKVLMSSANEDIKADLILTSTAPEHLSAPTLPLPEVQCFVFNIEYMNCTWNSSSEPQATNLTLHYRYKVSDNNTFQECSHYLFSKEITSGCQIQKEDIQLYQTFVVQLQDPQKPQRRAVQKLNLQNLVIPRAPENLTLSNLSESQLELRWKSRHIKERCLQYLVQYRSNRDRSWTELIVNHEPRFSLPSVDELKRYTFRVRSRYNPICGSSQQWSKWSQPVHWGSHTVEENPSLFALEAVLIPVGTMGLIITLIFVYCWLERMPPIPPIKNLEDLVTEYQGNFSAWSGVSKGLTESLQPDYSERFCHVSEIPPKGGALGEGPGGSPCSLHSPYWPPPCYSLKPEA

B1: protein 5a (IL-2 of SEQ ID NO:213; Peprotech, cat # AF-200-02) (ligand)
chain: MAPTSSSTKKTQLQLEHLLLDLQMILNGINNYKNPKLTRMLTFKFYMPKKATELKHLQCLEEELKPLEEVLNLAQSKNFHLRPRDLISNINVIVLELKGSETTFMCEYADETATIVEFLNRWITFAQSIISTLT
notes: also called control wild type IL2 protein 5a
Kd [1]: 427 nM
Kd [2]: 8.32 nM
Kd [3]: 16.2 nM
Kd [4]: 654 nM
KD-Ratio (α/β) [5]: 0.0248
EC50 HH cells, STAT5 phosphorylation [6]: 0.0561 µg/mL
EC50 CTLL-2, STAT5 phosphorylation [7]: 7.6 ng/mL
Ratio (E50 CTLL-2 cells/EC50 HH cell) [7]: 0.136
